PubChem BioAssay AID1347434 (National Center for Advancing Translational Sciences (NCATS), 2020)
Out of some 1,200 compounds screened, about 30 (2%) were called active. Inconclusive results (about 23%) are left out. The call rests on the fitted dose curve; in most records, active means well fitted inhibition curve with a large enough effect; inconclusive means small, poorly fitted or top-dose-only effect; inactive means flat fitted curve, though single readings scatter. This is one part of the list.

Target: Single-stranded DNA cytosine deaminase (Homo sapiens) (UniProt Q9GZX7)
Assay: Confirmatory qHTS assay for inhibitors of Activation Induced Cytidine Deaminase (AID): AID signals
Conditions: recombinant AID, FRET deamination/UDG coupled fluorescence, 4 h; series mostly up to 115 µM; activity, negative = inhibition: at the top concentration
Text: Assay Provider (PI) Patricia Gearhart Ph.D. National Institute on Aging National Institute of Health (NIH), Bethesda, MD Assay Provider (PI) Rahul Kohli Ph.D. Perelman School of Medicine University of Pennsylvania, Philadelphia, PA Activation-Induced Deaminase (AID) is a cytosine deaminase which converts cytosine into uracil within stretches of ssDNA. The presence of uracil in DNA initiates a cascade of mutagenic DNA repair to introduce point mutations and DNA double strand breaks. Specific targeting of AID to the immunoglobulin heavy chain loci (Igh) promotes mutagenesis in the antibody variable region for somatic hypermutation (SHM) or switch regions leading to class switch recombination (CSR). However, AID also plays a role in accumulating unnecessary mutations across the genome. Mis-targeting of AID results in the initiation of tumor development and leads to greater drug resistance among cancer cells when continually expressed. To identify an AID inhibitor, a small molecule library will be screened in collaboration with NCATS core facility at NIH. To confirm biological function, inhibitors will be examined in an in vitro murine B-cell activation assay and subsequent secondary validation screens. Top molecules will be further screened to identify inhibitory efficacy against a wild type primary splenocytes assay. Using these approaches, we hope to identify a small molecule with great efficacy and low toxicity for use as a molecular probe to further characterize AID's intricacies, or even as a therapeutic. A FRET based analysis of cytosine deamination, was developed to identify potential inhibitors of AID catalytic activity. This screen has two signal output, Read 1 evaluates the AID inhibition response. The second readout (Read 2) evaluates UDG response and is uses as a counterscreen to exclude false positive inhibitors. Inhibition in AID and inactivity in the UDG signal is the desired outcome for this assay.
PROTOCOL TABLE SEQUENCE No. (e.g., 1, 2, 3, etc.); […] (e.g., Cells, Incubation, Reagent, etc.); VALUE; DESCRIPTION 1a; Reagent; 3 uL; [4/3x] 1 uM AID/2.67 U/mL UDG 1b; Reagent; 3 uL; 2 U/mL UDG 1c; Reagent; 3 uL; 1 uM AID 2a; Compound; 46 nL; Follow-up plates (0.64 uM - 10 mM) 2b; Control; 46 nL; ATA (16.4 nM - 10 mM) 3; Time; 10 min; incubation at room temperature 4; Reagents; 1 uL; [4x] 250 nM DJC20 / 250 nM DJC23 [Substrate] 5; Time; 4 hr; incubation at room temperature 6; Reagent; 4 uL; [2x] 250 mM NaOH 7; Time; 15 sec; centrifuge at 1000 rpm 8; Time; 30 min; incubation at room temperature 9a; Detection; fluorescence (Read 1: AID); EnVision (PerkinElmer) plate reader, 540 excitation and 590 emission filters 9b; Detection; fluorescence (Read 2: UDG); EnVision (PerkinElmer) plate reader, 560 excitation and 665 emission filters NOTES (numbers refer to sequence above) 1a; Reagents were dispensed in a medium-binding black solid-bottom Greiner plates (789176F) using a BioRptr liquid dispenser. Dispense 3 uL of [4/3x] 1 uM AID (provided by Kohli lab) and [4/3x] 2 U/mL UDG (NEB M0280L) into columns 1, 2, 5 to 48. 1b; Dispense 3 uL of [4/3x] 2 U/mL UDG into column 3. 1c; Dispense 3 uL of [4/3x] 1 uM AID into column 4. 2a; Compound ([…] [uM]: 0.64; 3.2; 16; 80; 400; 2,000; 10,000; 20,000) double pin-transferred (Dip Factor = 2) using the Kalypsys (Wako USA) pintool equipped with a 1536 pinhead for a final concentration range of 7.32 nM - 114 uM. 2b; 10 mM Aurintricarboxylic Acid (Sigma A1895) (ATA, 8-point, n = 2, 1:2.5 dilution in column 2) double pin-transferred (Dip Factor = 2) using the Kalypsys (Wako USA) pintool equipped with a 1536 pinhead for a [final] range of 186 nM - 114 uM. 3; Room temperature incubation. 4; Dispense 1 uL of substrate mixture from the Kohli lab [4x] […] DJC20 and [4x] 250 nM DJC23 into columns 1 to 48 . 5; Room temperature incubation. 6; Dispense 4 uL of […] [2x] 250 mM NaOH into columns 1 to 48. 7; Centrifugation step to remove bubbles. […]
On the % scale 0 is the no-effect control and ±100 the full control effect.

Sequence of UniProt Q9GZX7 (Q9GZX7 whole entry, looked up): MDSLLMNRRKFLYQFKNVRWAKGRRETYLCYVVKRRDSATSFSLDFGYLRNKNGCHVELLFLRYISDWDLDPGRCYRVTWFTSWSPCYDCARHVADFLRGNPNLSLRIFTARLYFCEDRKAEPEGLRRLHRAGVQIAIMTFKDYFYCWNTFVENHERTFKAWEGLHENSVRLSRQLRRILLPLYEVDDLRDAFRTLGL

activity, negative = inhibition, inactive:
C=CCc1c(C)nc2nc(SCC(=O)Nc3cccc(Cl)c3)nn2c1C -1.94%, COc1ccc(CN(Cc2ccco2)C(=O)COc2ccc(Cl)cc2C)cc1 -5.94%, Cc1c(C(=O)N(C)Cc2ccccc2)sc2nc(-c3ccc(F)cc3)cn12 -20%, Cc1ccc(C)c(NC(=O)CSc2nccn2-c2cccc(C)c2C)c1 -14.5%, Cc1nn(-c2nc(-c3ccccc3)cc(C(F)(F)F)n2)c(C)c1Cl -5.99%, CCCCN(C)CC(O)Cn1cc(/C=C/C(=O)c2ccc(Br)cc2)c2ccccc21 (stereo unspecified) -14.5%, CCCN1CCN(c2ncnc3sc(C(=O)Nc4ccc(C(C)C)cc4)c(C)c23)CC1 -7.47%, Cc1ccc(C)c(N2CCN(C(=O)c3cn(CC(C)C)c(=O)c4c3c3ccccc3n4C)CC2)c1 -21.1%, Cc1ccc(Cn2c(CCNC(=O)c3cccc(C)c3)nc3ccccc32)cc1 -12.2%, COc1ccc(-c2nc3sc(CCNC(=O)c4ccc(Br)o4)c(C)n3n2)cc1 -4.97%, CCC(C)c1ccc(OCC(=O)Nc2cccc(-c3nc4ncccc4o3)c2)cc1 (stereo unspecified) -15.6%, CCN(CC)S(=O)(=O)c1ccc(C(=O)NCCSc2c(-c3ccccc3)[nH]c3ccccc23)cc1 2.03%, Cc1ccc(-n2ncc(C(=O)NCc3ccco3)c2C2CCN(C(=O)OC(C)(C)C)CC2)cc1C -8.95%, CCc1ccc(Nc2nc3ccccc3nc2NS(=O)(=O)c2ccccc2)cc1 -7.57%, CCC(Sc1nc2c(sc3ccccc32)c(=O)n1CCc1ccc(OC)c(OC)c1)C(=O)N(CC)CC (stereo unspecified) -18.2%, Cc1cc(C)cc(-n2ccnc2SCC(=O)Nc2cccc3ccccc23)c1 -7.94%, Cc1nc2cc(-c3ccccc3)nn2c(C)c1CCC(=O)N1CCN(c2ccc(F)cc2)CC1 -9.73%, CSc1nc(NCCOC(C)=O)c(C#N)c(-c2ccc(C(C)(C)C)cc2)n1 -16.2%, Cc1cccc(-n2ccnc2SCC(=O)Nc2cccc3ccccc23)c1 1.1%, COc1cccc(CC(=O)Nc2ccc3nc(N4CCC(C)CC4)cc(C)c3c2)c1 7.48%, Cc1ccc(-c2sc(C(=O)Nc3ccc(Br)cc3)cc2CC(=O)O)cc1 -3.84%, CCn1c(=O)c2cc(C(=O)N(CCCOC(C)C)Cc3ccco3)sc2c2ccccc21 -9.49%, Cc1ccc(C(=O)N(Cc2ccco2)Cc2sccc2C)cc1 -5.35%, CCc1nnc2c(N3CCN(c4cccc(C)c4)C(C)C3)nc3ccccc3n12 (stereo unspecified) -18.2%, COc1cc(Cn2c(=O)oc3ccc(C)cc32)ccc1OCCC(C)C -1.73%, Cc1nn2c(=O)cc(COC(=O)C(c3ccccc3)c3ccccc3)nc2s1 -3.6%, CCc1ccc(CNC(=O)CCCN2C(=O)c3cccnc3Oc3ccc(Cl)cc32)cc1 -19.1%, Cc1cccc(NC(=O)c2oc3c(c2C)-c2[nH]ncc2CC3)c1C 35.6%, Cc1cccc(C)c1-n1ncc(C(=O)NCc2ccc3c(c2)OCO3)c1C1CCN(C(=O)OC(C)(C)C)CC1 -16%, CCn1c(=O)cc(OCC(=O)N2CCN(c3cccc(Cl)c3)CC2)c2ccccc21 -13.2%, COc1ccc(C(=O)NCCn2cc(SCC(=O)Nc3ccc(F)cc3)c3ccccc32)cc1 4.45%, CCOc1ccccc1NC(=O)CSC1=Nc2ccccc2C2=NC(CC(=O)NCc3ccc4c(c3)OCO4)C(=O)N12 (stereo unspecified) -4.51%, COCCCNC(=O)c1oc2c(c1C)-c1nn(Cc3cccc(Cl)c3)cc1CC2 -16.9%, CCN(CCCNC(=O)c1cc2c(=O)n(C)c3ccccc3c2s1)Cc1ccccc1 -25.3%, Cc1ccc2c(c1)C(c1ccc(F)cc1)N(C(=O)COc1ccc(Cl)cc1Cl)CC(=O)N2 (stereo unspecified) -5.86%, Cc1[nH]c2ccccc2c1C1(O)C(=O)N(Cc2ccccc2Cl)c2ccccc21 (stereo unspecified) -8.59%, Cc1ccc(-c2cn(-c3cccc(Cl)c3)c(S(=O)(=O)CC(=O)Nc3cccc(C)c3)n2)cc1 -17.8%, CCn1cc(C(=O)NCCCN2CCCC(C)C2)c(=O)c2cc(S(=O)(=O)N(C)C3CCCCC3)ccc21 (stereo unspecified) -10.5%, Cc1nc2nc(SCC(=O)NC3CCC(C)CC3)nn2c(C)c1Cc1ccccc1 (stereo unspecified) -11%, CCCCN(CCCC)CCNC(=O)c1cn(CC)c2ccc(S(=O)(=O)N(C)C3CCCCC3)cc2c1=O -18.3%, CCOc1ccc(CNCc2c(C(=O)O)n(Cc3ccccc3F)c3cc(OC)ccc23)cc1 1.08%, CCN(CC)c1cc(C)c2cc(NC(=O)c3cccc(OC)c3)ccc2n1 -9.48%, Cc1ccc(/C=C/c2onc(C)c2S(=O)(=O)N2CCC(C(=O)N3CCC(N(C)C(C)C)CC3)CC2)cc1 -13%, COc1ccccc1Cn1cc(C(=O)c2ccccc2)c(=O)c2cc(OC)c(OC)cc21 -24.3%, CC1CCCCN1CCNC(=O)c1ccc(Cn2c(SCc3ccccc3)nc3cccnc32)cc1 (stereo unspecified) -6.95%, C=Cc1ccc(CN2C(=O)N(c3ccc(C)c(C)c3)S(=O)(=O)c3ccccc32)cc1 9.75%
